# Hit rate of the full screen: of about 310,000 compounds, about 2,200 (0.71%) showed an effect of 50% or more. Effects have a minus sign here. The list shows a part of the results.
# Biological target: human ether-à-go-go-related gene (hERG) potassium channel (human, UniProt Q12809)
# Assay: primary screen, population patch clamp on CHO cells stably expressing hERG
# Sequence of human ether-à-go-go-related gene (hERG) potassium channel (Q12809 whole entry, looked up): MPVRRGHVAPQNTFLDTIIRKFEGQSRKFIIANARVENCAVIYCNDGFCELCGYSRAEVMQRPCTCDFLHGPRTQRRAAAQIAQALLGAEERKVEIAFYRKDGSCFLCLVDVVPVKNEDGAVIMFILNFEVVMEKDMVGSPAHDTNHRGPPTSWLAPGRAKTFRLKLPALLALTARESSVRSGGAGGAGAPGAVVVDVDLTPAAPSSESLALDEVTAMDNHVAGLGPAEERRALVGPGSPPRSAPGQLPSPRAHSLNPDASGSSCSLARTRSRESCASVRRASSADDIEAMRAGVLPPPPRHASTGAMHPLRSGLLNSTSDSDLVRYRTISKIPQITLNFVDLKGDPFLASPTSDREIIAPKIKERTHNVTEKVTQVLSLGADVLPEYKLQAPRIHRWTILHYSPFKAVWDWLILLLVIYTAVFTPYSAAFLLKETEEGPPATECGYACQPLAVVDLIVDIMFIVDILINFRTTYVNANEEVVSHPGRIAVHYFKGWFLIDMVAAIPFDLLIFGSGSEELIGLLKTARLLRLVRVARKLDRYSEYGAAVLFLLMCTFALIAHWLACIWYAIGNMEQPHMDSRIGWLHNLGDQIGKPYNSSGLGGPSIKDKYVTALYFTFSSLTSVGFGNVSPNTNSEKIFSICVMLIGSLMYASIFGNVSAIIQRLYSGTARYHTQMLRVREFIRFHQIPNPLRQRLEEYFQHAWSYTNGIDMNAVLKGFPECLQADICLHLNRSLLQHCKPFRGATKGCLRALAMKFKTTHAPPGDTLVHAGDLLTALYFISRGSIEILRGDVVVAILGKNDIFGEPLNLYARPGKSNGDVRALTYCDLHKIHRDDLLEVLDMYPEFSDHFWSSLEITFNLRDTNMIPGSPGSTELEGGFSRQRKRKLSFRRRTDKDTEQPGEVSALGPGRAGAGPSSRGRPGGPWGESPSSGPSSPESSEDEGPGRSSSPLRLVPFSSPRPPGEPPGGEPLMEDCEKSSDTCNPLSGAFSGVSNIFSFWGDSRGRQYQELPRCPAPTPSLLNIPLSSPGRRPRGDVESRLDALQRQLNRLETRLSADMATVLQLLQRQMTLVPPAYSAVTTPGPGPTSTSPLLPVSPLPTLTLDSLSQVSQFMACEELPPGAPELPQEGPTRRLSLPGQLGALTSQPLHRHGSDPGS
row,SMILES,"hERG current change (%, negative = inhibition) at 1uM [%]"
1,O=C(O)c1cccc2c1C(=O)N(C1CCCC1)C2,11.2
2,COc1ccccc1NS(=O)(=O)c1cc(NC(=O)c2cc(=O)[nH]c3ccccc23)ccc1N1CCOCC1,1.92
3,COC(=O)c1ccc(C(=O)OC)c(=O)[nH]1,14.8
4,Cc1nnc(NC(=O)C(C)Sc2nnc(-c3ccco3)n2C)s1 (centres unmarked),14.5
5,O=C(OC(C(=O)NCc1cccs1)c1ccccn1)c1cccs1 (centres unmarked),5.25
6,COc1ccc2c(c1)-c1nc(NC(=O)c3ccco3)sc1CC2,14.4
7,Cc1oc(-c2cccs2)nc1CN1CCN(C(C)C)C(CCO)C1 (centres unmarked),12.9
8,CC(=O)c1cc2c(cc1NC(=O)Cn1cnc3ccccc3c1=O)OCO2,0.594
9,CCN(CC)CCCNc1oc(/C=C/c2ccccc2)nc1C#N,-17.7
10,COC(=O)C1CN(C(=O)C(C)Oc2cccc(C)c2C)c2ccccc2O1 (centres unmarked),11.6
11,COc1cccc(NC(=O)CC2C(=O)NC3CCCCC3N2C(=O)c2ccc(F)cc2)c1 (centres unmarked),9.58
12,CC(C)CCN1CCN(Cc2ccc(C#CC(C)(C)O)s2)CC1CCO (centres unmarked),12
13,CC(=O)c1cccc(Nc2ccc(-c3ccccc3F)nn2)c1,-13.3
14,Cc1n[nH]c(C)c1S(=O)(=O)N1CCCC(C(=O)NC2CCCc3ccccc32)C1 (centres unmarked),7.74
15,CCC1=NN2C(=N)/C(=C\c3ccc(OCCOc4ccc(NC(C)=O)cc4)cc3)C(=O)N=C2S1,0.37
16,COc1ccccc1NC(=O)C1CCCN(c2ncnc3c2nc2n3CCCCC2)C1 (centres unmarked),-3.34
17,O=S1(=O)N=C(N2CCN(c3ccc(F)cc3)CC2)c2ccccc21,-0.769
18,CC1(C)OC2OC(COC(=O)c3ccccc3)C3OC(C)(C)OC3C2O1 (centres unmarked),3.75
19,FC(F)(F)c1cnc(Sc2nnc(-c3cccs3)n2CC2CCCO2)c(Cl)c1 (centres unmarked),-4.86
20,O=C(O)c1cccc2[nH]c(C(F)(F)F)nc12,6.71
21,O=C(c1ccccc1)n1ccc2ccccc21,6.43
22,O=C1c2ccccc2CN1CCNS(=O)(=O)c1ccc(Cl)cc1,5.79

row,SMILES,"hERG current change (%, negative = inhibition) at 1uM [%]"
1,O=C(Nc1ccc(Cl)cc1)N1CCC(c2nc(-c3ccccc3Cl)no2)CC1,8.37
2,CCN(Cc1ccccc1)C(=O)C1CCN(Cc2ccc(OC)c(OC)c2OC)CC1.O=C(O)C(=O)O,-13
3,CCOc1ccc(/C=N/NC(=O)C(C)N(c2ccc(OC)cc2)S(C)(=O)=O)cc1OCC (centres unmarked),3.34
4,N#C/C(=C(/O)c1ccc(S(=O)(=O)N(CCCl)CCCl)cc1)c1nc2ccccc2[nH]1,14.7
5,CC(NC(=O)c1ccco1)C(=O)N1CCCCC1 (centres unmarked),-0.698
6,COCCNC(=O)c1cc2nc(-c3ccccc3)cc(C)n2n1,14.8
7,CC1CCCCC1NC(=O)/C(C#N)=C/c1ccc(F)c(F)c1 (centres unmarked),-1.92
8,Cc1[nH]c2ccccc2c1/C=C(\C#N)S(=O)(=O)c1ccccc1,7.54
9,O=C(CCCN1C(=O)c2ccccc2C1=O)NCc1ccco1,10.9
10,Cc1ccc([N+](=O)[O-])cc1N,17.5
11,CCOc1ccccc1NC(=O)CCS(=O)(=O)c1cccc2nonc12,2.2
12,O=C(NCc1ccccc1)c1noc2c1CCCCC2,1.5
13,O=C(Nc1ccc(Cl)cn1)C1CCN(c2ncnc3c2nc2n3CCCCC2)CC1,-0.595
14,COc1ccc(S(=O)(=O)N2CCN(CC(=O)Nc3cc(C(F)(F)F)ccc3Cl)CC2)cc1,2.29
15,[O-][N+]12CC[N+]([O-])(CC1)c1ccccc12,4.27
16,Cc1cc(C)cc(N(CC(=O)NC(C)(C)C)C(=O)CCC(=O)Nc2nccs2)c1,8.88
17,Cc1cccc(N(C(=O)Cc2cccs2)C(C(=O)NC2CCCC2)c2ccncc2)c1 (centres unmarked),11.2
18,NC1=NC(=O)/C(=C\c2ccc(-c3ccc(Cl)cc3)o2)S1,10.1
19,O=C(Cn1c(=O)oc2ccccc21)Nc1nc(-c2ccc(Br)cc2)cs1,-9.32
20,O=C(NCc1ccncc1)/C(=C\c1ccc(F)cc1)NC(=O)c1ccccc1,-52.3
21,CC(C(=O)N1CCN(C(=O)c2ccco2)CC1)n1sc2ccccc2c1=O (centres unmarked),5.54
22,CCc1ccc(/C=N\NC(=O)c2ccc(Br)o2)s1,1.9

row,SMILES,"hERG current change (%, negative = inhibition) at 1uM [%]"
1,CCOC(=O)c1cnc(SC)nc1Oc1cccc(NS(=O)(=O)c2ccc(F)cc2)c1,-16
2,Cc1ccc(C)c2[nH]c(=O)c(CN(Cc3ccco3)C(=S)NCC3CCCO3)cc12 (centres unmarked),7.45
3,COC(=O)c1ccc(OCCCCN2CC(C)OC(C)C2)cc1.O=C(O)C(=O)O (centres unmarked),2.55
4,O=C(N/N=C\c1ccc(-c2ccccc2[N+](=O)[O-])o1)C1COc2cc3ccccc3cc2O1 (centres unmarked),-9.75
5,CCCNC(=O)/C(=C/c1cn(S(=O)(=O)N(C)C)c2ccccc12)NC(=O)c1ccc(OC)cc1,7.96
6,CCOC(=O)C1(Cc2ccccc2)CCN(Cc2ccon2)CC1,6.27
7,O=S(=O)(/N=C(/Nc1cccc2ccccc12)c1ccccc1)c1cccs1,15.4
8,COc1cccc(-c2nn(-c3ccc(F)cc3)cc2C(=O)NCC2CCCO2)c1 (centres unmarked),-23
9,CCCCCCNc1nc(-c2ccc(OC)cc2)c(CCC(=O)O)s1,4.21
10,Nc1nonc1C(=O)OCC(=O)c1ccc(Cl)cc1,7.59
11,Cn1cnnc1SCC(=O)N1CCC(Cc2ccccc2)CC1,-3.72
12,O=C1OC2(CCCCC2)OC(=O)C1=CNc1nccs1,14
13,Cc1cc(-c2ccccc2)nc(N/N=C/c2ccc(N(C)C)cc2)n1,11.8
14,N#CC1=C(N)Oc2cc3c(cc2C1c1ccc(Cl)cc1)OCO3 (centres unmarked),9.88
15,CC(=O)NC(Cc1ccccc1)c1ccc2c(c1)OCCCO2 (centres unmarked),-2.5
16,Cc1ccc(-n2c3c(c(=O)[nH]c2=O)C(C(F)(F)F)(C(F)(F)F)NC(=O)N3)cc1,15.3
17,CCNC(=O)COC(=O)c1ccc(NS(=O)(=O)c2ccc3c(c2)OCCO3)cc1,19.5
18,CC(=O)C1C(c2ccc(Br)cc2)c2c(noc2C)CC1(C)O (centres unmarked),9.06
19,O=S(=O)(NCc1ccccc1Br)c1ccccc1Br,13.1
20,O=C(Cn1cc([N+](=O)[O-])cn1)Nc1ccn(Cc2c(F)c(F)c(F)c(F)c2F)n1,-17.8
21,COc1ccc(Br)cc1S(=O)(=O)N1CCCC1,6.06
22,CC(=O)c1cccc(Nc2nc(-c3sc(C)nc3C)cs2)c1,14.1

row,SMILES,"hERG current change (%, negative = inhibition) at 1uM [%]"
1,CC(=O)c1cccc(NC(=O)N2CCCC(C(=O)c3cc(F)ccc3F)C2)c1 (centres unmarked),6.28
2,O=C1C2=C(SCCS2)C(=O)N1c1ccccc1,20.6
3,O=C(COC(=O)COc1ccccc1[N+](=O)[O-])Nc1ccc(S(=O)(=O)N2CCCCC2)cc1,2.87
4,C[C@@H]1C=C(C(=O)NCc2nc3ccccc3[nH]2)O[C@H](OCc2ccc(CO)cc2)C1,4.23
5,O=C(Nc1cccc(C(=O)O)c1)/C(=C\c1ccc2c(c1)OCO2)NC(=O)c1ccc(Br)cc1,20.3
6,C=CCSc1nsc(N)n1,15.2
7,CCS(=O)(=O)c1nc2ccccc2n1Cc1ccccn1,10.1
8,CC(=O)N1CCN(c2ccccc2NC(=O)COc2cc(C)ccc2C(C)C)CC1,-0.11
9,Cc1ccccc1NC(=O)CC(O)(C(F)(F)F)C(F)(F)F,-3.01
10,CCOC(=O)c1c(-c2ccc(C)cc2)csc1/N=C/N(C)C,2.17
11,C/C(CCN1CCc2nc(-c3ccccc3)c(-c3ccccc3)cc2C1)=N\O[C@@H](C)c1cc(-c2c(C)cc(C)cc2C)no1,3.32
12,Cc1ccc(S(=O)(=O)N2[C@@H](c3ccc(Cl)cc3)C(C(=O)O)=CC[C@H]2c2ccc(Cl)c(Cl)c2)cc1,17.3
13,O=C(CNC(c1ccccc1)c1ccccc1)Nc1cc([N+](=O)[O-])ccc1Cl,16.3
14,CCCCCCOC(=O)c1ccccc1NC(=O)/C=C/C(=O)O,-5.34
15,O=C(COc1ccc(S(=O)(=O)N2CCOCC2)cc1Cl)NC1CCCCC1,10.7
16,Cc1ccccc1NC(=O)CSc1nnc(C2CC2)n1CC1CCCO1 (centres unmarked),17.2
17,CCc1ccccc1NC(=O)CN1CCN(C(=O)COc2ccccc2C#N)CC1,8.9
18,COc1ccc(NC(=O)CN(C)C(=O)c2ccc(NS(=O)(=O)c3ccc4[nH]c(=O)[nH]c4c3)cc2)cc1,14.8
19,O=C(NC1CCCCCC1)c1ccc(Br)o1,6.47
20,CCOC(=O)Cn1nnnc1CN1CCN(c2ccc(OC)cc2)CC1,1.34

# From paper PMC4336329 (PLoS ONE, 2015)
